In publication PMC11338640:
These are yes or no findings as the source states them, for the method shown. In cells and extracts the contact can be indirect. Some entries that bind do so weakly or less than the wild type. For some of these results: Where a sequence is shown, tags or fusion partners need not be part of it.

Chains of the proteins cited; added tags and fusions are not shown.
UniProt Q9H6S1: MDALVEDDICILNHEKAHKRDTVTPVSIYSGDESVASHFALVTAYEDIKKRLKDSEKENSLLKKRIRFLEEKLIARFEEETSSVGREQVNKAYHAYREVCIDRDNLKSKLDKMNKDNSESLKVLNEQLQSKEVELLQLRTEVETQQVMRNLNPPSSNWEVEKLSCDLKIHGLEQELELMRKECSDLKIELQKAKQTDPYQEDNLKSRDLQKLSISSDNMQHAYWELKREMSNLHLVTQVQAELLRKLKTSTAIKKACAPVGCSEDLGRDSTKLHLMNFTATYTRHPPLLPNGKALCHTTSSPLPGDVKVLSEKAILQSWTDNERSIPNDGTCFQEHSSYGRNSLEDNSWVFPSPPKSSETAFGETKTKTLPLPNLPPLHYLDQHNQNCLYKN
UniProt Q7Z434: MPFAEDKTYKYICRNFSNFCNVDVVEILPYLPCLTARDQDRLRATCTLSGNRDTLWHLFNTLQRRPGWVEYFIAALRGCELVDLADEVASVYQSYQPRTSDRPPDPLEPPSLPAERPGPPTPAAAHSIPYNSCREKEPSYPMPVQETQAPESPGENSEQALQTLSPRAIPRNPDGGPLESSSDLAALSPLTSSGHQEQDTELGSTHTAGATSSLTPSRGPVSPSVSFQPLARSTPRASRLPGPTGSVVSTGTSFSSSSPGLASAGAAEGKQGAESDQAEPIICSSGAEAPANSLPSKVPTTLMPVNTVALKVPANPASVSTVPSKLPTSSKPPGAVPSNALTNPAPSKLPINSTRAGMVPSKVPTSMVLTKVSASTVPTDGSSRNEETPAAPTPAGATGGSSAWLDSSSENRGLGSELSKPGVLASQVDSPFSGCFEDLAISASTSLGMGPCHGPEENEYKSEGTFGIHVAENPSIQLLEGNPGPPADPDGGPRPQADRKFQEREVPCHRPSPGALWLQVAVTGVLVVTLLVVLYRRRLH
UniProt A7MCY6: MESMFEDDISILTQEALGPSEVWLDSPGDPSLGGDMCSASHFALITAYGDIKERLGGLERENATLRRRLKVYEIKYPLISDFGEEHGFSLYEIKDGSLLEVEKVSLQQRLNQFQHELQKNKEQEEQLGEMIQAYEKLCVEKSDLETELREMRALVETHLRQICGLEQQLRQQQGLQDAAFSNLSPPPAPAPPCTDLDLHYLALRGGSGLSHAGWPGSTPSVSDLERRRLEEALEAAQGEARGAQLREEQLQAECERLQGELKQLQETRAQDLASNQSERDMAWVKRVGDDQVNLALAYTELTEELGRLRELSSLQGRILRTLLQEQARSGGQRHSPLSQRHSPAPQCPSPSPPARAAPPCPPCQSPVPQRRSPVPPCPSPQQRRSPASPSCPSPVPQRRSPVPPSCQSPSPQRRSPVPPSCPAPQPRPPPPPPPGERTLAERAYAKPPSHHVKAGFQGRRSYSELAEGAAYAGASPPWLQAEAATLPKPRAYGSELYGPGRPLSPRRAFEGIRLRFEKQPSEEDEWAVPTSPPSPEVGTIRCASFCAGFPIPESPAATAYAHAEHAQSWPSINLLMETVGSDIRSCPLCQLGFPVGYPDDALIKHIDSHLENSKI
UniProt Q98256: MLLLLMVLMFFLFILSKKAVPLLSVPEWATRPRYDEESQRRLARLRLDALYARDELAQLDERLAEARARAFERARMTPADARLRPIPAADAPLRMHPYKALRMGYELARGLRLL

Columns and labels:
[1] = biological target: NF-kappa-B-activating kinase-associated protein 1 (NAP1), FLAG-tagged (UniProt Q9H6S1); test: co-IP; HEK293T co-transfected (8 µg plasmid in all) with the HA-tagged MCV protein and FLAG-tagged signalling components; lysates precipitated on anti-FLAG M2 affinity gel overnight at 4 °C, eluted with FLAG peptide, blotted with anti-HA and anti-FLAG
[2] = biological target: mitochondrial antiviral-signalling protein (MAVS), FLAG-tagged (UniProt Q7Z434); test: as above
[3] = biological target: T1, TANK-binding kinase-1 (TBK1), FLAG-tagged (UniProt Q9UHD2); test: as above
T1 sequence: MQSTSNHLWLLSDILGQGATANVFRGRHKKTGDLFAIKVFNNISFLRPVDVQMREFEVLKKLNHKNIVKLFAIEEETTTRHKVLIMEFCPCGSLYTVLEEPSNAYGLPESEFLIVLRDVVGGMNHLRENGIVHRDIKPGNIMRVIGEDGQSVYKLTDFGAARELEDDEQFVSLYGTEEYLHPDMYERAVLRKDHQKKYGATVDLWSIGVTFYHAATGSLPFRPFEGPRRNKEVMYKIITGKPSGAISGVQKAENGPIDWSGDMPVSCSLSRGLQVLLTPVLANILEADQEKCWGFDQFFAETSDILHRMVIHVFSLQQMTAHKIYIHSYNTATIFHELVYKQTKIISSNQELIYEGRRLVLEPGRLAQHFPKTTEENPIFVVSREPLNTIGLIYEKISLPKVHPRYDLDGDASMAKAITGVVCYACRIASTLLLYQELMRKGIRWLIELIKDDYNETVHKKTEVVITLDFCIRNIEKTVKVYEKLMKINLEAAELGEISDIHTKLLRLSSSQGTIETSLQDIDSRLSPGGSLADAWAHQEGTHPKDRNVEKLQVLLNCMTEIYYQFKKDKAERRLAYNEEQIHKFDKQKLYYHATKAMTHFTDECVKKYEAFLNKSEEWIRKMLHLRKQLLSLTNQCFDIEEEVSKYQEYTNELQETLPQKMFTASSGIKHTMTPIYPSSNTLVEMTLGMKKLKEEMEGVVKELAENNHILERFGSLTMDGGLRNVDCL

IKKβ, FLAG-tagged = biological target: T2, IKKβ, FLAG-tagged (UniProt O14920); test: as above
T2 sequence: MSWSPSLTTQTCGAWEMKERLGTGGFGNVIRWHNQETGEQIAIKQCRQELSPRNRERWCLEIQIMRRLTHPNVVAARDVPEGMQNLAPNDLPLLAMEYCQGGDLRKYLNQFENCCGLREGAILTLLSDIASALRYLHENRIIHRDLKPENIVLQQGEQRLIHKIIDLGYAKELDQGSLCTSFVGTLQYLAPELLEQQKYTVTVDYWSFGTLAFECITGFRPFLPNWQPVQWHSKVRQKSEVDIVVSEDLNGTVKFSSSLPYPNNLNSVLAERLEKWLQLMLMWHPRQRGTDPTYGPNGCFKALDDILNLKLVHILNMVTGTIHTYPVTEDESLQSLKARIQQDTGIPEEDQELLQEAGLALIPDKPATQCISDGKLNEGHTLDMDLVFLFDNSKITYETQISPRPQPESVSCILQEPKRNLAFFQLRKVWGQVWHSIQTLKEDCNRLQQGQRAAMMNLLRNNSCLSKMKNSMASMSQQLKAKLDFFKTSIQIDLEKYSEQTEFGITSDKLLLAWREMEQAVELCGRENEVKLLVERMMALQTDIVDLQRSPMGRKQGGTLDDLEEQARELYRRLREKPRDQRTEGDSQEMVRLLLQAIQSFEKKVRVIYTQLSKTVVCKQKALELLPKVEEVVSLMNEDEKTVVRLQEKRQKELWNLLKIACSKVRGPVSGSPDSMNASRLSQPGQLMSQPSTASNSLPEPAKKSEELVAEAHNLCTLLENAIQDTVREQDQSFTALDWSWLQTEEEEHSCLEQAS

[4] = biological target: TANK-binding kinase 1-binding protein 1 (TBKBP1), FLAG-tagged (UniProt A7MCY6); test: as above
[5] = biological target: T3, IκB kinase epsilon (IKKε), FLAG-tagged (UniProt Q14164); test: as above
T3 sequence: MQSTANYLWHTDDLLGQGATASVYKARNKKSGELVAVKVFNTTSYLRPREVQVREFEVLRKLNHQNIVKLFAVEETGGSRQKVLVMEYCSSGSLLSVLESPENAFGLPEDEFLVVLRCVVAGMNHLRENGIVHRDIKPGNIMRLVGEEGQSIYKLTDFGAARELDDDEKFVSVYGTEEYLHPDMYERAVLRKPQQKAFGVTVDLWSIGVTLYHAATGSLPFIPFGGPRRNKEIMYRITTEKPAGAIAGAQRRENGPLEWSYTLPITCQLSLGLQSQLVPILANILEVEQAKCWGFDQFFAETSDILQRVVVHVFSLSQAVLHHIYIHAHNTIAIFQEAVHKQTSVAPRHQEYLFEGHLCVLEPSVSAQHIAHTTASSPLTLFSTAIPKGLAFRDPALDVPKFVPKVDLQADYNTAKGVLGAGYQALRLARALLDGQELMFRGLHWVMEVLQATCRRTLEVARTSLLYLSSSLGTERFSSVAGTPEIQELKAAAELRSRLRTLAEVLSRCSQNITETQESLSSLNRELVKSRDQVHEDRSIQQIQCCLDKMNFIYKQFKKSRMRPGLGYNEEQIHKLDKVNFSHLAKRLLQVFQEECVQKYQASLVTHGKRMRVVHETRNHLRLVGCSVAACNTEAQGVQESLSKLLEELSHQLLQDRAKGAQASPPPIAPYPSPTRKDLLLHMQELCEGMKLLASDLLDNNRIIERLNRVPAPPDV

[6] = biological target: T4, TRAF family member-associated NF-kappa-B activator (TANK), FLAG-tagged (UniProt Q92844); test: as above
T4 sequence: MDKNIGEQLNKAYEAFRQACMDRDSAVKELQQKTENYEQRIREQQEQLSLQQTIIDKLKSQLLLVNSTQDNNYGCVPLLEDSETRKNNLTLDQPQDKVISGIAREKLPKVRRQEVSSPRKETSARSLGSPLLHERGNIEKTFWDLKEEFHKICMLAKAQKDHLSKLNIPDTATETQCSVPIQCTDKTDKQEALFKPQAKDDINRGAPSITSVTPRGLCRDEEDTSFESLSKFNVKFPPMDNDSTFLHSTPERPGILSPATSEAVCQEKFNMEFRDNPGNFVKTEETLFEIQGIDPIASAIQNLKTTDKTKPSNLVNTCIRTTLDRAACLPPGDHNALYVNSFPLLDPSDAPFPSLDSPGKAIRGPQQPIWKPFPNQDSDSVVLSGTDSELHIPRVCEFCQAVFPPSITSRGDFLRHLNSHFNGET

[7] = biological target: endogenous mitochondrial antiviral-signalling protein (MAVS) of HEK293T cells (human (endogenous in HEK293T)) (UniProt Q7Z434); test: co-IP; HEK293T transfected with pCEP4-MC089-HA; immunoprecipitation with antibody to endogenous MAVS or endogenous TBKBP1
[8] = biological target: endogenous TANK-binding kinase 1-binding protein 1 (TBKBP1) of HEK293T cells (human (endogenous in HEK293T)) (UniProt A7MCY6); test: as above

| Substance | binding [1] | binding [2] | binding [3] | binding (IKKβ, FLAG-tagged) | binding [4] | binding [5] | binding [6] | binding [7] | binding [8] |
| --- | --- | --- | --- | --- | --- | --- | --- | --- | --- |
| MC089-HA (molluscum contagiosum virus protein MC089, C-terminal HA tag, pCEP4) (from UniProt Q98256 1-114) | binds | binds | no binding | no binding | binds | binds | no binding | binds | binds |
| MC020 (molluscum contagiosum virus protein MC020, negative control) (from UniProt O40975 1-139) | no binding | no binding | – | – | no binding | no binding | – | – | – |
